Data published in PubChem BioAssay AID894 (National Center for Advancing Translational Sciences (NCATS), 2007).
Several values for one entry are separate records, joined by “and”; a condition that tells them apart may be missing. Identical values can stand only once. The campaign covered roughly 150,000 compounds. About 6,500 (4.3%) were called active. Inconclusive means that the source gave no clear call. Such entries were picked first, then a sample of the others. The call rests on the fitted dose curve; in most records, active means well fitted inhibition curve with a large enough effect (not every such curve was filed as active); inconclusive means small, poorly fitted or top-dose-only effect, or another doubt; inactive means no such curve, though single readings can be large or run the other way. A potency beside an inconclusive call is a rough fit, not a confirmed value.

biological target: 15-hydroxyprostaglandin dehydrogenase [NAD(+)] (Homo sapiens) (UniProt P15428); test: qHTS Assay for Inhibitors of HPGD (15-Hydroxyprostaglandin Dehydrogenase); conditions: purified HPGD, NADH fluorescence kinetic, PGE2 substrate; activity change, negative = inhibition: hits give low values
Summary of the method: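 NADH formation kinetics: reaction with 30 uM PGE2 and 1 mM NAD+ (final), 20 nM enzyme, Tris-HCl pH 8 with Tween 20, after 15 min compound preincubation at room temperature. Fluorescence change, last versus first of five reads.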
On the % scale 0 is the no-effect control and ±100 the full control effect; potency means the concentration at half of the fitted maximal effect; tags describe the fitted curve by direction and shape.

UniProt P15428, sequence (P15428 whole entry, looked up): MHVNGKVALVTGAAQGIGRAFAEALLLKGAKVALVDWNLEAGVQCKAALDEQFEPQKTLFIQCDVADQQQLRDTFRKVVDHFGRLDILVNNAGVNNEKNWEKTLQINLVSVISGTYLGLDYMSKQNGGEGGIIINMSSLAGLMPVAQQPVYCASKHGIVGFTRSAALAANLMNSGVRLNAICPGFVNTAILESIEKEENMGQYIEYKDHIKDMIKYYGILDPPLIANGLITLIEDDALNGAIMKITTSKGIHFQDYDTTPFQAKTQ

Compound | activity change, negative = inhibition | Potency
O=C(CCn1nc(-c2ccccc2)c2ccccc2c1=O)N1CCN(c2ccccc2)CC1 | inactive: -11.3% | 
O=C(O)c1nnsc1-c1ccc(-c2snnc2C(=O)O)cc1 | inactive: -21.7% | 
Cc1cc(C)c2c(CC(=O)O)coc2c1 |  | active: 20 µM
Cc1cc(-c2nnc(-c3ccccc3)c(-c3ccccc3)n2)c(C)o1 |  | inconclusive: 31.6 µM [inhibitor, single point]
CCCCc1ccc(S(=O)(=O)NCCc2ccncc2)cc1 | inactive: -1.91% | 
Nc1cc(-c2ccncc2)c[nH]c1=O |  | inconclusive: 14.1 µM [inhibitor, partial curve] and inconclusive: 12.6 µM [inhibitor, partial curve]
O=C(NCc1ccccn1)c1ccc(NC(=O)c2ccco2)cc1 |  | active: 14.1 µM
COc1ccc(NC2=NCC(=O)N2c2ccccc2)c(OC)c1 | inactive: 1.86% | 
COc1ccc(OC)c(C(=O)CSc2nccc(-c3ccc(Br)cc3)n2)c1 |  | inconclusive: 39.8 µM [inhibitor, partial curve, poor fit]
Cc1cc(Cl)ccc1OC(C)C(=O)Nc1ccccc1N1CCOCC1 (stereo not drawn) | inactive: -3.71% | 
Fc1ccc2[nH]c3c(N4CCSCC4)ncnc3c2c1 |  | inconclusive: 25.1 µM [inhibitor, partial curve]
c1ccc(-n2c(SCC3CCCCO3)nnc2-c2cnccn2)cc1 (stereo not drawn) |  | active: 28.2 µM
Cc1cc(C(F)(F)F)nn1-c1nc(-c2ccco2)cc(C(F)(F)F)n1 |  | inconclusive: 28.2 µM [inhibitor, partial curve]
NC(=O)c1ccc(NC(=O)C2CCCO2)cc1 (stereo not drawn) |  | inconclusive: 28.2 µM [inhibitor, partial curve]
CC1CCCC(C)N1C(=O)CSc1nnc(-c2cccs2)o1 (stereo not drawn) |  | inconclusive: 25.1 µM [inhibitor, partial curve]
Cc1ccc(-c2nn(C)c(=O)c3ccccc23)cc1S(=O)(=O)N1CCCC1 |  | inconclusive: 39.8 µM [inhibitor, partial curve]
COc1cc2[nH]c3c(N4CCN(c5ccccn5)CC4)ncnc3c2cc1OC |  | inconclusive: 20 µM [inhibitor, partial curve]
CC(C)c1ccc(/C=C(/C#N)c2nnc(NC(=O)c3ccccc3)s2)cc1 |  | inconclusive: 17.8 µM [inhibitor, partial curve]
CSc1ccccc1NC(=O)c1noc2c1CCC2 |  | inconclusive: 28.2 µM [inhibitor, single point]
CC(C)Cc1nc(N2CCN(C(=O)c3ccco3)CC2)c(C#N)c2c1CCC2 |  | inconclusive: 28.2 µM [inhibitor, partial curve]
O=C(CNC1CCCCCC1)c1cccs1 |  | inconclusive: 25.1 µM [inhibitor, single point]
COCCSc1ccccc1C(=O)NCc1ccc2c(c1)OCO2 |  | inconclusive: 28.2 µM [inhibitor, partial curve, poor fit]
CCOC(=O)c1c(NC(=O)c2ccco2)sc2c1CCCCC2 |  | inconclusive: 28.2 µM [inhibitor, single point]

Compound | activity change, negative = inhibition | Potency
C/C=C/Cn1c(SCc2ccccc2)nc2c1c(=O)[nH]c(=O)n2C |  | active: 20 µM
CN(C)CC(C)(C)CNC(=O)C1CCN(Cc2ccccc2O)CC1 | inactive: -3.62% | 
O=C(Nc1ccc(-c2nc3ccccc3[nH]2)cc1)c1cccc(N2C(=O)CCC2=O)c1 |  | inconclusive: 35.5 µM [inhibitor, partial curve]
CS(=O)(=O)c1ccc(CNC(=O)[C@H]2C[C@@H]2[C@H](NP(=O)(c2ccccc2)c2ccccc2)c2ccccc2)cc1 | inactive: -3.47% | 
CSc1nc2c(c(=O)[nH]c(=O)n2C)n1C/C=C(\C)Cl |  | inconclusive: 31.6 µM [inhibitor, single point]
COC(=O)C(N)CS (stereo not drawn) |  | active: 25.1 µM
COc1ccc(CN2CC(C(=O)NCCN3CCOCC3)CC2=O)cc1 (stereo not drawn) | inactive: -2.46% | 
CCC(=O)Nc1ccc(-c2cc(-c3ccccc3)nc(-c3ccc(NC(=O)CC)cc3)n2)cc1 |  | inconclusive: 25.1 µM [inhibitor, partial curve]
CC(C)CNC(=O)c1cc2nc3c(c(C(F)(F)F)n2n1)CCc1ccccc1-3 |  | inconclusive: 1.41 µM [inhibitor, full curve]
CC(=O)OCc1c(COC(C)=O)[n+](=O)c2ccccc2n1[O-] | inactive: -0.546% | 
O=C(Nc1ccccc1N1CCCC1)c1cccc(-c2cc3ccccc3oc2=O)c1 | inactive: -8.45% | 
Cc1cc(NC(=O)CCCS(=O)(=O)c2nc(-c3cccs3)cc(C(F)(F)F)n2)no1 |  | inconclusive: 25.1 µM [inhibitor, partial curve]
CC1=CC(C)(C)Nc2ccc(OC(=O)C(Cc3ccccc3)N3C(=O)C4CCCCC4C3=O)cc21 (stereo not drawn) |  | inconclusive: 14.1 µM [inhibitor, partial curve]
COC(=O)c1sc(-c2ccccc2)cc1NC(=O)c1ccccc1 |  | inconclusive: 31.6 µM [inhibitor, partial curve]
Cc1ccc(S(=O)(=O)N(Cc2cc3cc4c(cc3[nH]c2=O)OCCO4)CC2CCCO2)cc1 (stereo not drawn) |  | inconclusive: 28.2 µM [inhibitor, partial curve]
CCOC(=O)N1CCN(CC(=O)Nc2c(C(=O)OC)[nH]c3ccc(Cl)cc23)CC1 |  | inconclusive: 35.5 µM [inhibitor, partial curve]
Cc1noc(C)c1COC(=O)c1cc2c3ccccc3n(C)c2s1 |  | inconclusive: 25.1 µM [inhibitor, partial curve, poor fit]
COC(=O)c1ccc(COc2ccc3c(C)c(C)c(=O)oc3c2C)o1 |  | inconclusive: 15.8 µM [inhibitor, partial curve]
CCN(C(=O)COC(=O)c1c2c(nc3ccccc13)/C(=C/c1ccccc1)CC(C)C2)C1CCS(=O)(=O)C1 (stereo not drawn) |  | inconclusive: 28.2 µM [inhibitor, partial curve]
Cc1cc(NC(=O)c2cc(-c3cccs3)on2)nn1Cc1ccc(Cl)cc1 |  | inconclusive: 35.5 µM [inhibitor, single point]
CCOC(=O)Nc1nnc(/C=C/c2ccc(OC)cc2)s1 |  | inconclusive: 25.1 µM [inhibitor, partial curve]
COc1cc(OC)nc(NC(=O)NS(=O)(=O)c2ccc(OC(F)(F)F)cc2)n1 | inactive: -8.48% | 
Cc1cccc(-n2ncc3c(NC4CCCCC4)ncnc32)c1 |  | inconclusive: 17.8 µM [inhibitor, partial curve]

Compound | activity change, negative = inhibition | Potency
CCCc1nc(N2CCOCC2)c(C#N)c2c1CCCC2 |  | inconclusive: 39.8 µM [inhibitor, single point]
CC(C)CC(c1nnnn1Cc1ccccc1)N1CCN(C(=O)c2ccco2)CC1 (stereo not drawn) | inactive: -0.117% | 
CCCn1c(=O)c(C(=O)NCc2ccc(OC)c(OC)c2)c(O)c2ccccc21 |  | inconclusive: 35.5 µM [inhibitor, single point]
CN(C)C(=S)Nc1ccc2ccccc2c1 | inactive: -5.62% | 
COc1ccc(NC(=O)c2cc(-c3ccc(C)o3)nc3ccccc23)cc1OC |  | inconclusive: 22.4 µM [inhibitor, partial curve]
Cc1ccc(C)n1-c1cc(S(=O)(=O)N2CCOCC2)ccc1N1CCCC1 |  | inconclusive: 31.6 µM [inhibitor, partial curve]
CCN1c2cccc3cccc(c23)S1(=O)=O |  | inconclusive: 25.1 µM [inhibitor, single point]
Cc1cc2ccccc2c(=O)n1CC(=O)NCC(=O)N1CCN(c2ccccc2F)CC1 |  | inconclusive: 3.98 µM [inhibitor, full curve, poor fit]
O=C(c1ccc(Cl)cc1)c1oc2ccccc2c1CS(=O)c1ccccc1 (stereo not drawn) |  | inconclusive: 28.2 µM [inhibitor, partial curve]
CCCc1cc(SCC(=O)Nc2c(C)n(C)n(-c3ccccc3)c2=O)n2c(nc3ccccc32)c1C#N |  | inconclusive: 12.6 µM [inhibitor, partial curve]
Cc1ccccc1NC(=O)c1ccc(COc2ccc3c(C)cc(=O)oc3c2)cc1 |  | inconclusive: 28.2 µM [inhibitor, partial curve]
CCn1c(SCC(=O)N2CCCc3ccccc32)nc2c1c(=O)n(C)c(=O)n2C | inactive: -3.73% | 
O=C(Nc1cccs1)Nc1ccc(Br)cc1F |  | inconclusive: 8.91 µM [inhibitor, full curve]
O=C(OC(C(=O)NC1CCCC1)c1ccccc1F)c1ccco1 (stereo not drawn) | inactive: -7.8% | 
OCCCc1nc2n(n1)C(c1cccs1)C=C(c1ccccc1)N2 (stereo not drawn) |  | inconclusive: 31.6 µM [inhibitor, partial curve]
Cc1ccc2cc3cc(C(=O)NCc4ccco4)oc3nc2c1 |  | inconclusive: 15.8 µM [inhibitor, partial curve]
CCOc1ccc(C(=O)Nc2ccc(NC(=O)c3ccco3)c(Cl)c2)cc1Br |  | inconclusive: 28.2 µM [inhibitor, single point]
O=C(NCc1ccco1)c1ccc(Br)s1 |  | active: 15.8 µM
CSc1nc(-c2ccco2)nn1S(=O)(=O)c1ccccc1 |  | active: 14.1 µM
Cc1csc(NC(=O)CSc2nnc(Cn3c(=O)sc4ccccc43)n2-c2ccccc2)n1 | inactive: -22.3% | 
CC1(C)CC(=O)C(C(C2=C(O)CC(C)(C)CC2=O)c2ccc(Br)s2)C(=O)C1 (stereo not drawn) |  | active: 1.41 µM
Cc1cc(O)c(C=O)c2c1C(=O)Oc1c(COC(=O)/C=C/C(=O)O)c(O)c(C(=O)O)c(C)c1O2 |  | active: 1.41 µM
